Patent publication US20030095977A1 (published 2003)

Biological target: T1, CD20 (human, UniProt P11836 1-297)
T1 construct: whole, on cells; also called CD20 on Ramos cells
T1 sequence (looked up): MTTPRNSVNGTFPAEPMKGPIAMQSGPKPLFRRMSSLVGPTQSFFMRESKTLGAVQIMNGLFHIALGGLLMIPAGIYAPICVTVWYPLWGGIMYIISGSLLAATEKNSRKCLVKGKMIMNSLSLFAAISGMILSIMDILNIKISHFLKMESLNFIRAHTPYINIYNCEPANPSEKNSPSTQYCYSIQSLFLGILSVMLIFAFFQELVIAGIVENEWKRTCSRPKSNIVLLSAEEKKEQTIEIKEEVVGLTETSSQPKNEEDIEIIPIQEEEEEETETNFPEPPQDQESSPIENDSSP
Test: saturation binding of radiolabeled fusion protein to Ramos cells (10^7 cells), nonlinear regression; avidity

B1: B9E9 scFvSA (VH-VL 25-mer) (scFv)
chain: QVQLVQSGAELVKPGASVKMSCKASGYTFTSYNMHWVKQTPGQGLEWIGAIYPGNGDTSYNQKFKGKATLTADKSSSTAYMQLSSLTSEDSAVYYCARAQLRPNYWYFDVWGAGTTVTVSKISGGGGSGGGGSGGGGSGGGGSGGGGSSDIVLSQSPAILSASPGEKVTMTCRASSSVSYMHWYQQKPGSSPKPWIYATSNLASGVPARFSGSGSGTSYSLTISRVEAEDAATYYCQQWISNPPTFGAGTKLELKSSGSGSA[not shown - about 150 residues]
notes: monomer mass 43,401; It was radiolabeled in the avidity assay; also called B9E9 scFvSA (25-mer); B9E9 fusion protein
Ka: 8e+07 M⁻¹ | Kd: 12.4 nM
